± gives the standard error. Variants at the floor of the assay are shown more often than the library holds them.
B1: glmS ribozyme (parent)
chain: AUAAAAGCGCCAGAACUACAGAAAUGUAGUUGACGAGGAGGAGGUUUAUCGAAUUUUCGGCGGAUGCCUCCAAA

Variants of: B1
Assay: self-cleavage kobs at 10000 uM GlcN6P; higher = faster cleavage; RNA array
Conditions: with glucosamine-6-phosphate
Procedure, shortened: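 Using a hybridised Cy3 probe at 37 °C, barcoded ribozyme variants transcribed in situ by E. coli RNA polymerase on sequenced MiSeq chips were monitored across tiles imaged over ~14 h. The flow contained glucosamine-6-phosphate from 40 μM to 10 mM in HEPES/KCl/Mg(OAc)2 buffer. Signals were normalised to baseline and to non-cleaving reference variants before per-tile medians were fit to one- or two-exponential decays to yield kobs. Weighted Michaelis–Menten fits across concentrations gave kcat and KM.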

Row | Variant | self-cleavage kobs at 10000 uM GlcN6P
1 | G7A A39G C68U C70A | < 1e-05 s⁻¹
2 | G7A C11G C61A | < 1e-05 s⁻¹
3 | G7A C16A U56C C70U | < 1e-05 s⁻¹
4 | G7C A48G | < 1e-05 s⁻¹
5 | G7C C58U C71U | < 1e-05 s⁻¹
6 | G7C U56C | < 1e-05 s⁻¹
7 | G7U A39U G43A C67U | < 1e-05 s⁻¹
8 | G7U C34U G35C G41A A48C U55A | < 1e-05 s⁻¹
9 | G7U G35C G41U | < 1e-05 s⁻¹
10 | G7U G35U C58U | < 1e-05 s⁻¹
11 | G7U G41A U57G | < 1e-05 s⁻¹
12 | G7U U47G G62A | < 1e-05 s⁻¹
13 | C8A G35C A53U | < 1e-05 s⁻¹
14 | C8G A14G G41A | < 1e-05 s⁻¹
15 | C8G A15C G40A G41U C50U C70G | < 1e-05 s⁻¹
16 | C8G A33G G41U C58U A64C C68U | < 1e-05 s⁻¹
17 | C8G C34U A39C | < 1e-05 s⁻¹
18 | C8U A42G A52G | < 1e-05 s⁻¹
19 | C8U G9U G43A | < 1e-05 s⁻¹
20 | C8U G44U U46A C50G | < 1e-05 s⁻¹
21 | C8U U30C A39C U46C | < 1e-05 s⁻¹
22 | G9A A14G C16G C70A | < 1e-05 s⁻¹
23 | G9A C10G G43A C70G | < 1e-05 s⁻¹
24 | G9A C58U C71U | < 1e-05 s⁻¹

Row | Variant | self-cleavage kobs at 10000 uM GlcN6P
25 | G9U G32A U55C | < 1e-05 s⁻¹
26 | C10G A14G A33G | < 1e-05 s⁻¹
27 | C10G C11G U30A A48U C50U U57A | < 1e-05 s⁻¹
28 | C10U A14C G40C | < 1e-05 s⁻¹
29 | C10U G13C G29U A36G C70U | < 1e-05 s⁻¹
30 | C10U G29A C67U C70U | < 1e-05 s⁻¹
31 | C11A A12C U31C U49A | < 1e-05 s⁻¹
32 | C11A A15G U57A G62U | < 1e-05 s⁻¹
33 | C11A G44U C67U | 4.33e-05 ± 2.1e-05 s⁻¹
34 | C11G G32C G38C G66A | < 1e-05 s⁻¹
35 | C11U A33U U57C | < 1e-05 s⁻¹
36 | C11U A36U | < 1e-05 s⁻¹
37 | C11U G13C G35C | < 1e-05 s⁻¹
38 | C11U G63C | < 1e-05 s⁻¹
39 | A12C G62U C71U | < 1e-05 s⁻¹
40 | A12C U31G G63U | < 1e-05 s⁻¹
41 | A12C U49G C68A | < 1e-05 s⁻¹
42 | A12U G37C U45A A48U C68U | < 1e-05 s⁻¹
43 | G13A A36G A39G | < 1e-05 s⁻¹
44 | G13A G29A G63U | < 1e-05 s⁻¹
45 | G13A U65G C70G | < 1e-05 s⁻¹
46 | G13C G29C G43C C67A | < 1e-05 s⁻¹
47 | G13U G32C C34U G60A G66A | < 1e-05 s⁻¹
48 | G13U U30A C58U G59U | < 1e-05 s⁻¹

Row | Variant | self-cleavage kobs at 10000 uM GlcN6P
49 | A14C A53U C61A | < 1e-05 s⁻¹
50 | A14G C61A C70A | < 1e-05 s⁻¹
51 | A14U A42U U57C | < 1e-05 s⁻¹
52 | A14U G38A G40U U47C G66U | < 1e-05 s⁻¹
53 | A15C C16A A36C G41C G62U | < 1e-05 s⁻¹
54 | A15G A33C A52U | < 1e-05 s⁻¹
55 | A15G A52G C67U C71G | 4.89e-05 ± 1.3e-05 s⁻¹
56 | A15G G32A A39U C50U | < 1e-05 s⁻¹
57 | A15U A36G U54G | < 1e-05 s⁻¹
58 | A15U C34A G41A | < 1e-05 s⁻¹
59 | A15U C58G U65A | < 1e-05 s⁻¹
60 | C16A G29C G37C A42U | < 1e-05 s⁻¹
61 | C16A G32U U46C G63A C67U C68U | < 1e-05 s⁻¹
62 | C16G A33U G44U A53U | < 1e-05 s⁻¹
63 | C16G C50A U56C U69G | < 1e-05 s⁻¹
64 | G26U U69A | 6.81e-05 ± 2.1e-05 s⁻¹
65 | G29C G32A G38C | < 1e-05 s⁻¹
66 | G29C G37A G43U | < 1e-05 s⁻¹
67 | G29C G40C G41A G51A | < 1e-05 s⁻¹
68 | G29U A33U G62U | < 1e-05 s⁻¹
69 | U30A A42G U46A | 0.000409 ± 9.1e-05 s⁻¹
70 | U30A G41A U46A C70G | < 1e-05 s⁻¹
71 | U30A U49G C68A | < 1e-05 s⁻¹
72 | U30C A53U G60U | < 1e-05 s⁻¹

Row | Variant | self-cleavage kobs at 10000 uM GlcN6P
73 | U30C U46C G59U | < 1e-05 s⁻¹
74 | U30G A53U U69A | 4.29e-05 ± 1.8e-05 s⁻¹
75 | U31A C34U G40C | < 1e-05 s⁻¹
76 | U31C G44A C71G | < 1e-05 s⁻¹
77 | U31G C50A G59A | < 1e-05 s⁻¹
78 | G32U U46A A52G C61U C67G | < 1e-05 s⁻¹
79 | A33U G38U U46G | < 1e-05 s⁻¹
80 | C34A G38A A53U | < 1e-05 s⁻¹
81 | C34U G38U A48U | < 1e-05 s⁻¹
82 | G35C A48G G59U G60A | < 1e-05 s⁻¹
83 | G35U U46C U47G | < 1e-05 s⁻¹
84 | A36C G37C | < 1e-05 s⁻¹
85 | A36C G51C C68U | < 1e-05 s⁻¹
86 | A36C G60A | < 1e-05 s⁻¹
87 | A36C U56C | < 1e-05 s⁻¹
88 | A36G A39U A53G | < 1e-05 s⁻¹
89 | A36G A64C U65G | < 1e-05 s⁻¹
90 | G37A U65C C70U | < 1e-05 s⁻¹
91 | G37C C61G C67U C71U | < 1e-05 s⁻¹
92 | G37C G44C | < 1e-05 s⁻¹
93 | G38A G40U U49A C68U C70U | < 1e-05 s⁻¹
94 | G38C A52U G59A | < 1e-05 s⁻¹
95 | G38C C61G U69A | < 1e-05 s⁻¹
96 | G38C G44U U55A U65C | < 1e-05 s⁻¹

Row | Variant | self-cleavage kobs at 10000 uM GlcN6P
97 | A39G U65G C70U | 0.0203 ± 0.0059 s⁻¹
98 | A39U U55C A64G | 0.0229 ± 0.0073 s⁻¹
99 | A39U U55C U65C | 0.00435 ± 0.00052 s⁻¹
100 | G40U A53C G62C | < 1e-05 s⁻¹
101 | G41C A53C C58A C61U | < 1e-05 s⁻¹
102 | G41C A53G C61G | < 1e-05 s⁻¹
103 | A42C G63A C67A | < 1e-05 s⁻¹
104 | A42U U56C | 5.38e-05 ± 1.2e-05 s⁻¹
105 | G43A C50A A64U | < 1e-05 s⁻¹
106 | G43U A52U C58U A64G | < 1e-05 s⁻¹
107 | U45G U54A C58A G60U | < 1e-05 s⁻¹
108 | U46G C50G C67G | < 1e-05 s⁻¹
109 | U46G C61G C71G | 4.27e-05 ± 1.8e-05 s⁻¹
110 | U47A U65G G66U | 0.00262 ± 0.00053 s⁻¹
111 | A48C C68A C71U | < 1e-05 s⁻¹
112 | A48C G59U C71G | < 1e-05 s⁻¹
113 | U49A C70A | < 1e-05 s⁻¹
114 | A52U C58G U65G | < 1e-05 s⁻¹
115 | G59C G60C | < 1e-05 s⁻¹
116 | C61G G62A U69C | < 1e-05 s⁻¹
117 | C61G U69A | < 1e-05 s⁻¹
118 | G62U U69C | < 1e-05 s⁻¹
119 | C67U C70U C71U | < 1e-05 s⁻¹

— the supplement of paper PMC7125110
